# According to PMC4336329 (PLoS ONE, 2015):
# Hit rate of the full screen: of about 310,000 compounds, about 2,200 (0.71%) showed an effect of 50% or more. The effect is printed as a negative number. Some of the results follow.
# Target: human ether-à-go-go-related gene (hERG) potassium channel (human, UniProt Q12809)
# Assay: primary screen, population patch clamp on CHO cells stably expressing hERG
# human ether-à-go-go-related gene (hERG) potassium channel, sequence (Q12809 whole entry, looked up): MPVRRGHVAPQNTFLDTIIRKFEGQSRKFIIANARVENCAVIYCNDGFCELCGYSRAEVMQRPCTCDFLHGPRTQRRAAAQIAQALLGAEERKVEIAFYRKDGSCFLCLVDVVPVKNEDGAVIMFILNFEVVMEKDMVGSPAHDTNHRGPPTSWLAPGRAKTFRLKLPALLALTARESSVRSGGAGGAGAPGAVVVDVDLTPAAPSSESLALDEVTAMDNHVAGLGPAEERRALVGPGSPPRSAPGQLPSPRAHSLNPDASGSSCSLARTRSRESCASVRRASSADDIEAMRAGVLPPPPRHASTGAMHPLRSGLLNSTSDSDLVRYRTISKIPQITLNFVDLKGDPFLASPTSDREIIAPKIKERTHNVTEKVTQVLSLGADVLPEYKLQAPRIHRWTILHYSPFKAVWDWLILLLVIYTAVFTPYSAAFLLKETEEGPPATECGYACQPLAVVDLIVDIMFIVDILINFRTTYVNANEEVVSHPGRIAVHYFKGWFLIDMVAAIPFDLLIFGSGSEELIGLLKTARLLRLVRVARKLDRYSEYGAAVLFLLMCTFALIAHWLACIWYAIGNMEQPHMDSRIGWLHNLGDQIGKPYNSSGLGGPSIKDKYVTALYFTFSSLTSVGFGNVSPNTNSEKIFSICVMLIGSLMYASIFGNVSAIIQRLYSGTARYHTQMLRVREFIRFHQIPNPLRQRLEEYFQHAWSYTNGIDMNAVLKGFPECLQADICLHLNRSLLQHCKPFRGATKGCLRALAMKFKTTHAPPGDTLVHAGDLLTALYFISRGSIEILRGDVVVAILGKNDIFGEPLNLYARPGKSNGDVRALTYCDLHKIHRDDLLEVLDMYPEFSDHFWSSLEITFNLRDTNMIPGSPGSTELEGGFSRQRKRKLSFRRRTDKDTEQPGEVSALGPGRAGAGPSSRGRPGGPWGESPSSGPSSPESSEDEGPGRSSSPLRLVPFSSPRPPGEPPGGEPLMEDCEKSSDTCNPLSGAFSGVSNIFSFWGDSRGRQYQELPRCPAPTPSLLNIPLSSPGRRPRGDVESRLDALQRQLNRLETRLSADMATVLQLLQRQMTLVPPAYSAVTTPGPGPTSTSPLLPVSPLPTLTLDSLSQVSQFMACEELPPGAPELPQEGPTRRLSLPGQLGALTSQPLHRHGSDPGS
row,Structure (SMILES),"hERG current change (%, negative = inhibition) at 1uM [%]"
1,O=C1c2ccccc2NC2(CCCC2)N1N=C1CCCC1,3.95
2,O=C1C2C3C=CC(CC3)C2C(=O)N1c1ccc([N+](=O)[O-])cc1 (stereo not shown),14.4
3,CCOC(=O)CSc1nc2ccc(C)cc2n2cnnc12,11.3
4,Cc1nn(C)c(C)c1S(=O)(=O)N1CCC(C(=O)NC2CCCCC2)CC1,13
5,Cc1cccc(C)c1NC(=O)c1ccc2c(c1)CCN2S(C)(=O)=O,9.28
6,Cc1ccc(C)c(OCCC(=O)OCC(=O)NCc2ccccc2)c1,18.1
7,COCCNC(=O)C(c1cccs1)N(CCc1ccccc1)C(=O)Cn1nnc2ccccc21 (stereo not shown),9.47
8,CN1CCN(C(=O)C(N)Cc2ccccc2)CC1 (stereo not shown),1.84
9,O=C(NCc1ccc(F)cc1)C1CCN(S(=O)(=O)N2CCCC2)CC1,9.34
10,O=C(COc1cc2oc(=O)c3c(c2cc1Cl)CCC3)NCCN1CCOCC1,12.4
11,Cc1ncoc1C(=O)N1CCc2c([nH]c3ccccc23)C1C1CCCCC1 (stereo not shown),15.8
12,C=CCN(c1ccc(C(=O)NCCCn2ccnc2)cc1)S(C)(=O)=O,15.5
13,COCCN(CC1CCCN(C2Cc3ccccc3C2)C1)C(=O)c1ccc(C(C)=O)cc1 (stereo not shown),-51.9
14,O=C(CCS(=O)(=O)c1ccccc1)Nc1ccc2c(c1)C(=O)NC2=O,7.64
15,Cc1ccc(S(=O)(=O)N2CCCC(C(=O)N3CCCc4ccccc43)C2)cc1 (stereo not shown),13.3
16,O=C(Nc1nnc(Cc2ccccc2)s1)c1ccco1,9.57
17,O=C(CN1CCC(n2nnc3ccccc32)CC1)NCc1cccs1,-47.3
18,CC1=Nc2cc(C(=O)O)ccc2Sc2ccc(C)cc21,27.5
19,CN1CCN(c2nc3ccccn3c(=O)c2C=O)CC1.Cl,15.2
20,CCOc1ncccc1C(=O)Nc1nnc(C2CC2)s1,7.35

row,Structure (SMILES),"hERG current change (%, negative = inhibition) at 1uM [%]"
1,COc1cccc(-c2nc(Cc3ccc(OC)c(OC)c3)no2)c1,8.35
2,COc1ccc(/C=C/C(=O)NC(=S)N2C[C@H]3C[C@H](C2)c2cccc(=O)n2C3)cc1,-6.48
3,CO/N=C/c1c(-c2ccc(Cl)cc2)nc2cc(C)ccn12,19.8
4,CC(=O)Nc1ccc(NC(=O)COC(=O)c2c3c(nc4ccccc24)CCN(Cc2ccccc2)C3)cc1,-1.91
5,CCc1ccc(NC(=O)CSCc2nc(N)nc(Nc3ccccc3CC)n2)cc1,10.9
6,O=C(CSc1nnc(CNC(=O)c2c(F)cccc2F)o1)NCCc1ccccc1,3.03
7,Cc1ccccc1C(=O)NCc1ccncc1,-6.97
8,CC/C(=N\NS(C)(=O)=O)c1ccccc1,6.87
9,O=C(CN1CCN(c2ccccc2)CC1)Nc1nnc(-c2ccccc2)s1,9.03
10,COc1ccc(OC)c(S(=O)(=O)Nc2ccc(O)c(Sc3ncn[nH]3)c2)c1,-3.39
11,O=C(CSc1nnnn1-c1ccc2c(c1)OCCO2)Nc1nc2c(s1)CCCC2,11.9
12,CCSc1nnc(NC(=O)/C=C/c2ccco2)s1,2.42
13,O=C(CN(CC1CCCO1)C(=O)CCC(=O)Nc1nccs1)NCc1ccccc1 (stereo not shown),9
14,Nn1c(SCC(=O)Nc2ccc3c(c2)OCCO3)nnc1-c1ccccn1,-4.65
15,C/C(=C\C(=O)O)CC(=O)O,1.12
16,COc1cc(C(=O)NC(=S)Nc2cccc3nc(C)ccc23)cc(OC)c1OC,-0.514
17,CCn1c(SC(C)C)nnc1C1CCN(S(=O)(=O)c2ccc(OC)cc2)CC1,8.11
18,C#CCOc1nc(C)cc(C)c1S(=O)(=O)c1ccccc1C,10.9
19,CCn1nccc1C(=O)Nc1nccs1,13.5
20,CCOC(=O)N1CCN(C(=O)CSCc2nc(-c3ccccc3C)oc2C)CC1,-6.84

row,Structure (SMILES),"hERG current change (%, negative = inhibition) at 1uM [%]"
1,Oc1cccc2cc3cccc(O)c3c(O)c12,7.99
2,CCC1CCCCN1CCCNC(=O)CSc1nc2nc(C)c(Cc3ccccc3Cl)c(C)n2n1 (stereo not shown),4.2
3,O=Cc1c[nH]c2ccc(C(=O)c3ccccc3)cc12,12.2
4,O=C(c1ccoc1)N1CCC2(CC1)Oc1ccc(Cl)cc1C(=O)C21CC(c2ccc(Cl)cc2)=NO1 (stereo not shown),19.5
5,CCOC(=O)CCn1nc(-c2ccccc2)cc1N,6.61
6,CNC(=O)N/N=C(\N)c1ccccn1,17
7,CC(Oc1cccc(Cl)c1)C(=O)Nc1ccncc1 (stereo not shown),4.24
8,O=c1c(CO)cc(CO)cc(CO)c1O,4.46
9,O=C(Nc1ccccc1)c1ccc(CSc2ccccn2)cc1,7.32
10,O=c1c2ccccc2nc(-c2ccccc2)n1-c1cccnc1,-9.75
11,N#CCC(=O)NN=C1CCCCCCCCCCC1,13.4
12,O=C1Nc2ccccc2N(O)N1c1ccc(Cl)cc1,17.2
13,O=C(Nc1ccccc1C(=O)Nc1ccccc1C(=O)NCc1ccco1)c1ccco1,11.4
14,Cc1c(OC(C)C(=O)O)ccc2c3c(c(=O)oc12)CCCC3 (stereo not shown),10.8
15,CC(C)CC(NC(=O)CCC(=O)OCC(=O)[C@@]1(O)CCC2[C@@H]3CCC4=CC(=O)C=C[C@]4(C)C3[C@@H](O)C[C@@]21C)C(=O)O (stereo partly shown),6.47
16,O=C(NCc1ccc2c(c1)OCO2)c1ccc(CSCc2cccc(Cl)c2)o1,-1.64
17,COc1cccc(CNC2CCCC2)c1,-5.01
18,COC(=O)C1=C(c2ccc3ccccc3c2)C[C@@H]2CC[C@H]1N2C(=O)NC1CCCCC1,6.06
